Assay results from PubChem BioAssay AID1508624 (National Center for Advancing Translational Sciences (NCATS), 2021).
Where “and” joins values, the source holds several entries; their conditions need not be identical. Equal values may be shown once. Among all 48,000 compounds or so, about 120 (0.25%) were called active. Inconclusive results (about 4%) are left out. Calls come from the whole dose curve; as a rule, active = well fitted activation curve with a large enough effect; inconclusive = small, poorly fitted or top-dose-only effect, or another doubt; inactive = no such curve, though single readings can be large or run the other way. This is one part of the list.

Assay: Primary qHTS for Identification of Small Molecule Activators of Huntingtin-Antisense Promoter Activity; note: nearly all actives have a fitted effect of over 55% in size
Details: HEK293 HTT-AS promoter firefly luciferase reporter, 24 h; at 57.5 µM (top of the series) unless noted
How it was run: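 HEK293 Fluc reporter, 2,500 cells/well, 24 h pre-culture; cpds up to 57.5 uM final, 24 h 37 degrees C; Dual-Glo, 10 min RT; normalized vehicle = 0%, zero RLU = -100%.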

Compound | activity change, positive = activation
CC(C)c1c(CN(C)C(C)Cc2ccccc2)n(C)n(-c2ccccc2)c1=O (centres undefined) | inactive: 2.64%
Cc1ccc(Cn2cccc(C(=O)Nc3nc4ccc(C)cc4s3)c2=O)cc1 | inactive: -20.4%
Oc1ccc(Cl)cc1 | inactive: -2.28%
COc1ccc(C(=O)c2c(C)n(CCN3CCOCC3)c3cc(I)ccc23)cc1 | inactive: -28.8%
Cc1ccc(OCC(=O)Nc2ccc(Cl)cc2C(=O)c2ccccc2)c(Br)c1 | inactive: -1.29% [at 57.5 µM, percent change from vehicle, -100% = no light]
O=P1(NCCCl)OCCCN1CCCl (centres undefined) | inactive: -1.73% and inactive: -14.6%
CCc1ccc(-n2nc(C)c3c2NC(=O)CSC3c2ccccc2C)cc1 (centres undefined) | inactive: -36.7%
O=S(=O)(c1ccc(Cl)cc1)c1ccc(Cl)cc1 | inactive: -13.7% [at 116 µM]
CC(C)NC(C)C | inactive: -0.938%
NC(=O)CN1CCCC1=O | inactive: -5.01%
O=c1[nH]c2ccccc2n1C1CCNCC1 | inactive: -7.11%
ClCCN1CCCC1 | inactive: -1.31%
N[C@@H](Cc1ccc(Oc2cc(I)c(O)c(I)c2)c(I)c1)C(=O)O | inactive: -13.2%
O=C(Oc1ccc([N+](=O)[O-])cc1)N1CCC(C(O)(c2ccc3c(c2)OCO3)c2ccc3c(c2)OCO3)CC1 | inactive: -12.6%
CN1C(=O)COc2c(C(=O)NC3CN4CCC3CC4)cc(Cl)cc21 (centres undefined) | inactive: -5.58% and inactive: 6.44%
O=C(Nc1ccc(F)c(Cl)c1)N(Cc1ccc2c(c1)OCO2)C1CCN(Cc2ccccc2)CC1 | inactive: -22.2%
Cc1ccc(S(=O)(=O)N[C@@H](CCCCN)C(=O)CCl)cc1 | inactive: -5.73%
O=C1CN=C(c2ccccc2)c2cc([N+](=O)[O-])ccc2N1 | inactive: -8%
CCOc1ccc2nc(NC(=O)c3cccn(Cc4ccc(C)cc4)c3=O)sc2c1 | inactive: -20.8%
O=C1CCC[C@@H]2[C@H]3CCCN4CCC[C@@H](CN12)[C@@H]34 | inactive: -11.7%
Cc1cccc(C)c1NC1=NCCCS1 | inactive: -7.36%
O=C(Nc1ccccc1)N(Cc1ccc2c(c1)OCO2)C1CCN(Cc2ccccc2)CC1 | inactive: -13.7% [at 57.5 µM, percent change from vehicle, -100% = no light]
Nc1ccc(N)cc1 | inactive: 8.1%
O=C(Nc1ccon1)c1cccn(Cc2cccc([N+](=O)[O-])c2)c1=O | inactive: -15.1%
CCOC(=O)C1(c2ccccc2)CCN(CCc2ccc(N)cc2)CC1 | inactive: -8.14%

Compound | activity change, positive = activation
O=C(Nc1ccc2c(c1)OCO2)c1cccn(Cc2ccccc2)c1=O | inactive: 16.2%
COC(=O)c1ccccc1NC(=O)c1cccn(Cc2cccc(Cl)c2)c1=O | inactive: -41% [at 57.5 µM, percent change from vehicle, -100% = no light]
CCO/N=C(\CC)C1=C(O)CC(c2c(C)cc(C)cc2C)CC1=O (centres undefined) | inactive: -10% [at 116 µM]
Clc1ccccc1C(c1ccccc1)(c1ccccc1)n1cccn1 | inactive: -7.24%
CCc1ccc(C2CCNCC2)cc1 | inactive: -3.07%
Clc1ccc(C(OCCN2CCCCC2)c2ccccc2)cc1 (centres undefined) | inactive: -23.6%
CCCSP(=O)(OCC)SCCC | inactive: -5.15% [at 116 µM]
Cc1c(Cl)c(=O)oc2cc(OP(=O)(OCCCl)OCCCl)ccc12 | inactive: -15%
O=C(Nc1ccc2c(c1)OCCO2)c1cccn(Cc2ccccc2)c1=O | inactive: 11.7%
CC[N+]1(CCOC(=O)C(O)(c2ccccc2)c2ccccc2)CCCCC1 | inactive: -0.986%
C[N+]1(C)[C@@H]2CC[C@H]1CC(OC(=O)C(CO)c1ccccc1)C2 (some centres undefined) | inactive: -15.1%
Cc1ccc(-c2nc(CN3C(=O)CN=C(c4ccccc4Cl)c4cc(Cl)ccc43)c(C)o2)cc1 | inactive: -15.1% [at 57.5 µM, percent change from vehicle, -100% = no light]
Nc1ccccc1 | inactive: -0.652%
O=C1CC(c2ccc(C(F)(F)F)cc2)c2c(c3ccccc3oc2=O)O1 (centres undefined) | inactive: -7.2%
Cc1cccc(Cn2cccc(C(=O)Nc3nnc(C)s3)c2=O)c1 | inactive: -9.2% [at 57.5 µM, percent change from vehicle, -100% = no light]
COc1cc(CC(C)N)cc2c1OCO2 (centres undefined) | inactive: -12% [at 116 µM]
N#Cc1cc2c(nc1SCC(=O)Nc1ccc(F)c(Cl)c1)C1CCN2CC1 | inactive: -10.9% [at 57.5 µM, percent change from vehicle, -100% = no light]
CCN[C@@H](C)Cc1ccccc1 | inactive: -7.13% [at 116 µM]
CCCN1CCC[C@@H]2Cc3nc(N)ncc3C[C@H]21 | inactive: -2.45%
CCO[C@H]1O[C@@H]2OC3(C)CC[C@H]4[C@H](C)CC[C@@H]([C@H]1C)[C@@]24OO3 | inactive: -13.6%
Cc1ccccc1-n1c(Cn2cnc3c(N)ncnc32)nc2cccc(C)c2c1=O | inactive: -30.3%
O=C1CC(c2ccc(F)cc2)c2c(c3ccccc3oc2=O)O1 (centres undefined) | inactive: 0.362% [at 57.5 µM, percent change from vehicle, -100% = no light]
COCC1(CO)C(=O)C2CCN1CC2 (centres undefined) | inactive: -8.7%
COc1ccc(CCNCc2ccc3c(c2)n(C)c(=O)n3C)cc1 | inactive: -10.5% [at 57.5 µM, percent change from vehicle, -100% = no light]
O=C(Nc1ccc(Br)cc1C(=O)c1ccccc1Cl)c1ccccc1F | inactive: -11.1% [at 57.5 µM, percent change from vehicle, -100% = no light]

Compound | activity change, positive = activation
CC(C)(C)[C@]1(O)C[C@@H]2OC(=O)C[C@@]23C(=O)O[C@@H]2OC(=O)[C@H](O)C213 (some centres undefined) | inactive: -10%
CC[C@H](O)C(C[C@H](C)N(C)C)(c1ccccc1)c1ccccc1 | inactive: -50.1% [at 116 µM]
CCOc1ccc(NC(=O)c2cccn(Cc3cccc(Cl)c3)c2=O)cc1 | inactive: -33.5%
CC(Cc1ccc(O)cc1)NCC(O)c1cc(O)cc(O)c1 (centres undefined) | inactive: -7.91%
Cc1oc(-c2ccccc2Cl)nc1CN1C(=O)CN=C(c2ccccc2)c2cc(Cl)ccc21 | inactive: -5.59% [at 57.5 µM, percent change from vehicle, -100% = no light]
CS(=O)(=O)c1ccc(C(=O)C2C(=O)CCCC2=O)c([N+](=O)[O-])c1 | inactive: 2.98% [at 116 µM]
COc1ccc(NC(=O)CCc2nc(C3=CCN(Cc4cccc(Cl)c4)CC3)no2)cc1OC | inactive: -25.5%
Cc1ccc(-n2nc(C)c3c2NC(=O)CSC3c2ccc(O)cc2)cc1Cl (centres undefined) | inactive: -32.1% [at 57.5 µM, percent change from vehicle, -100% = no light]
O=c1c2ccccc2nc(/C=C/c2ccccc2O)n1-c1ccc(Br)cc1 | inactive: -38.7%
CCCC12CN3CC(C)(CN(C1)C3c1ccccn1)C2=O (centres undefined) | inactive: 3.3% [at 57.5 µM, percent change from vehicle, -100% = no light]
O=C1C(I)=CC(=C(c2cc(I)c(O)c(I)c2)c2ccccc2C(=O)O)C=C1I | inactive: -24.1%
COc1ccc(NC(C)=O)cc1NC(=O)c1cccn(Cc2ccccc2)c1=O | inactive: 10.4% [at 57.5 µM, percent change from vehicle, -100% = no light]
CC[C@H]1C[C@H]2[C@@H]3CCC4=CC(=O)CC[C@@H]4[C@H]3CC[C@]2(C)[C@H]1O | inactive: -4.97%
Cc1nnc(NC(=O)c2cccn(Cc3cccc([N+](=O)[O-])c3)c2=O)s1 | inactive: -17.8% [at 57.5 µM, percent change from vehicle, -100% = no light]
C[N+]1(CCC(C(N)=O)(c2ccccc2)c2ccccc2)CCCCC1 | inactive: 1.7%
c1ccc2c(c1)Sc1ccccc1N2CC1CN2CCC1CC2 (centres undefined) | inactive: -52.8%
CC(Cc1ccc2c(c1)OCO2)NO (centres undefined) | inactive: 0.923% [at 116 µM]
COC(C)(C)CCCC(C)C/C=C/C(C)=C/C(=O)OC(C)C (centres undefined) | inactive: 0.341% [at 57.5 µM, percent change from vehicle, -100% = no light]
O=S(=O)(CC1CS1)c1ccc(Oc2ccccc2)cc1 (centres undefined) | inactive: 6.79%
CCOc1ccccc1CN(CCc1ccc2c(c1)OCO2)Cc1ccc(CC)cc1 | inactive: -22.7% [at 57.5 µM, percent change from vehicle, -100% = no light]
CSc1ncc(C(=O)Nc2ccc(Cl)cc2C(=O)c2ccccc2)c(C)n1 | inactive: -21.1% [at 57.5 µM, percent change from vehicle, -100% = no light]
CC(C)(C)c1ccc(OCC(=O)Nc2ccc(Cl)cc2C(=O)c2ccccc2)cc1 | inactive: -6.75% [at 57.5 µM, percent change from vehicle, -100% = no light]
C[C@]12Cc3cn[nH]c3C[C@@H]1CC[C@@H]1[C@H]2CC[C@@]2(C)[C@H]1CC[C@]2(C)O | inactive: -8.73%
Cc1ccc(Cn2cccc(C(=O)Nc3nnc(C)s3)c2=O)cc1 | inactive: -10.1% [at 57.5 µM, percent change from vehicle, -100% = no light]
